Some of the results follow. One pool of 16,384 single-stranded DNAs met each Rep nickase domain in vitro for 1 h at 37 °C with 3 µM enzyme; only the middle of the 90-letter strands is printed. A value is the log2 ratio of uncut reads to the pool without enzyme; more negative means more cut, near 0 not cut, and no call is made. The scaling is to total reads; where an enzyme cuts many sequences, the uncut ones exceed 0.
Columns and labels:
Assay in all cases: uncleaved DNA left, log2 of reads against the no-enzyme library (log2 ratio); higher = less cleavage (more negative = more Rep cleavage of the k-mer); sequences stand for … in CTCGTCCG…ACCGGAGA
[1] = test system: T1, Rep nickase domain of Muscovy duck circovirus
T1 sequence (residues 1-111 of Rep, tag left off): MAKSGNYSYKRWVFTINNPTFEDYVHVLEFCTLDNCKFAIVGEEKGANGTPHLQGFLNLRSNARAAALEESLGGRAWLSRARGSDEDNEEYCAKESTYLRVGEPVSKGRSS
Description: (§1)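 A pool of 90-nt single-stranded DNAs with seven random bases just before the constant AC of the nick site (name = the seven bases) was cut by 3 µM recombinant His6-SUMO-tagged Rep nickase domain (300 nM DNA, 50 mM HEPES pH 8.0, 50 mM NaCl, 1 mM MnCl2, 1 h, 37 °C, three replicates). Uncut DNA was amplified and sequenced.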

[2] = test system: T2, Rep nickase domain of banana bunchy top virus
T2 sequence (residues 1-94 of Rep, tag left off): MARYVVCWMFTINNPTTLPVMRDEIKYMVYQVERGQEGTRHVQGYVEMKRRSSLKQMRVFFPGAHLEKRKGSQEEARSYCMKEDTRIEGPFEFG
Description: as §1

[3] = test system: T3, Rep nickase domain of cabbage leaf curl virus
T3 sequence (residues 1-116 of Rep, tag left off): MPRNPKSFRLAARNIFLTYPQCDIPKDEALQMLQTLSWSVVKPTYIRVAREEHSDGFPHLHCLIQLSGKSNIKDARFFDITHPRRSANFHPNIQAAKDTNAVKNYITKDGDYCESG
Description: as §1

[4] = test system: T4, Rep nickase domain of chickpea chlorotic dwarf virus
T4 sequence (residues 1-124 of Rep, tag left off): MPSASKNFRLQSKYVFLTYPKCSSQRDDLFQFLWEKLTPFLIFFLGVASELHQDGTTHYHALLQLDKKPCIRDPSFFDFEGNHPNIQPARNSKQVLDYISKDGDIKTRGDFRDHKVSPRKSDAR
Description: as §1

[5] = test system: T5, Rep nickase domain of faba bean necrotic yellows virus
T5 sequence (residues 1-98 of Rep, tag left off): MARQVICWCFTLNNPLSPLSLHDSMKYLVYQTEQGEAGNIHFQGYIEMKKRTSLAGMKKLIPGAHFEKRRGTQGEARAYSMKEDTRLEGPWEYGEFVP
Description: as §1

[6] = test system: T6, Rep nickase domain of maize striate mosaic virus
T6 sequence (residues 1-117 of Rep, tag left off): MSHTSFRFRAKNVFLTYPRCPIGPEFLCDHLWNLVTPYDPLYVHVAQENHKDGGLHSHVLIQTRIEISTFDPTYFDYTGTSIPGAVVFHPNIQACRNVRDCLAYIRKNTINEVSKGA
Description: as §1

[7] = test system: T7, Rep nickase domain of porcine circovirus 2
T7 sequence (residues 2-116 of Rep, tag left off): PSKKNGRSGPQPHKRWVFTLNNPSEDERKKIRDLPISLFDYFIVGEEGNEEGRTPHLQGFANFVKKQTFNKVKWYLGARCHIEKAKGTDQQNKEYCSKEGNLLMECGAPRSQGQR
Description: as §1

[8] = test system: T8, Rep nickase domain of tomato yellow leaf curl virus
T8 sequence (residues 1-136 of Rep, tag left off): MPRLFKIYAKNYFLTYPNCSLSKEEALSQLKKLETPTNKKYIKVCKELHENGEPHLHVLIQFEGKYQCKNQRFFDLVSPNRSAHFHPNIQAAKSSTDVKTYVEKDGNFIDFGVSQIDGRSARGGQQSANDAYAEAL
Description: as §1

[9] = test system: T9, Rep nickase domain of wheat dwarf virus
T9 sequence (residues 1-137 of Rep, tag left off): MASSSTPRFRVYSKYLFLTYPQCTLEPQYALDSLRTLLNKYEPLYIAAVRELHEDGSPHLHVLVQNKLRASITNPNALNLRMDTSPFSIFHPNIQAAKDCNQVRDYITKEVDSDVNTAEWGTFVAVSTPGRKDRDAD
Description: as §1

Sequence | uncleaved DNA left (log2) [1] | uncleaved DNA left (log2) [2] | uncleaved DNA left (log2) [3] | uncleaved DNA left (log2) [4] | uncleaved DNA left (log2) [5] | uncleaved DNA left (log2) [6] | uncleaved DNA left (log2) [7] | uncleaved DNA left (log2) [8] | uncleaved DNA left (log2) [9]
TCACTCA | -0.133 | -0.0353 | -0.116 | -1.3 | 0.0137 | -0.449 | -0.162 | 0.0198 | -0.0849
GCGGGAA | 0.0469 | 0.129 | 0.658 | 1.43 | 0.213 | 1.76 | 0.181 | 0.0189 | 0.0987
GTTGAAT | 0.0563 | 0.0559 | 0.363 | 0.89 | 0.0437 | 1.7 | 0.00275 | 0.0855 | 0.078
GCCCTAG | -0.0825 | -0.085 | -0.523 | -0.347 | -0.204 | -1 | -0.0104 | 0.00751 | -0.265
ACTTGCC | 0.0466 | -0.00639 | -0.567 | -0.498 | 0.0557 | -0.929 | 0.0381 | -0.0873 | -0.0608
CCTCGCT | 0.0143 | 0.0408 | -0.415 | -0.997 | -0.0271 | -0.851 | 0.0747 | -0.108 | -0.0966
CCATCGA | -0.0416 | -0.0331 | -0.518 | -0.729 | 0.0203 | -1.02 | 0.153 | 0.0407 | 0.0272
TCTTTTC | -0.07 | -0.172 | 0.0894 | -0.363 | -0.0694 | -0.729 | -0.0185 | -0.064 | -0.0694
CGGGCTC | 0.202 | 0.00482 | 0.656 | 1.12 | -0.0479 | 1.61 | 0.144 | -0.00293 | 0.00864
CGATTAC | 0.00104 | -0.121 | -0.22 | -1.4 | -0.0966 | -0.702 | -0.0717 | -0.106 | -0.0754
TCACGGT | 0.07 | -0.123 | 0.236 | 0.38 | -0.109 | 1.23 | -0.00286 | -0.0784 | -0.1
GGCATGC | -0.0889 | -0.0594 | 0.22 | 0.859 | -0.112 | 0.908 | -0.0307 | -0.111 | -0.0561
ATTCTTA | -0.206 | -0.163 | -0.134 | -1.43 | -0.107 | -0.626 | -0.4 | -0.019 | 0.0276
GCATGTA | -0.0253 | 0.0339 | -0.0208 | -0.0034 | 0.0158 | -0.16 | -0.0663 | -0.0652 | -0.0422
GCTTACC | 0.0188 | 0.0186 | 0.0425 | -0.749 | 0.111 | 0.573 | -0.0513 | 0.105 | 0.0869

— the supplement of paper PMC7826260
